Measurements taken from paper PMC7997032, “Organic synthesis and anti-influenza A virus activity of cyclobakuchiols A, B, C, and D” (PLoS ONE, 2021).

Assays:
A/PR/8/34 virus = assay: Immunofluorescence staining of viral NP in influenza A virus-infected MDCK cells; settings: A/PR/8/34, MOI 0.1, 24 h, Fig 4A
A/WSN/33 virus = assay: as above; settings: A/WSN/33, MOI 0.1, 24 h, Fig 4C

C=C[C@]1(C)CCC(C(C)(C)O)C(c2ccc(O)cc2)C1 (stereo in doubt) [cyclobakuchiol D] was tested, and the “concentrations at which the number of NP-stained cells was reduced compared to DMSO” value (A/PR/8/34 virus) was 6.3 to 12.5 µM.
With C=C[C@@](C)(/C=C/c1ccc(O)cc1)CCC=C(C)C [(+)-(S)-bakuchiol, reference compound] the “concentrations at which the number of NP-stained cells was reduced compared to DMSO” value (A/PR/8/34 virus) was 3.1 to 12.5 µM and the “number of NP-stained cells compared with DMSO” value (A/WSN/33 virus) was “equal to that in the DMSO-treated cells”.
